Data reported in PubChem BioAssay AID1346428 (National Center for Advancing Translational Sciences (NCATS), 2018).
“And” between values parts separate entries of the source, which are not always exact repeats. Equal entries are not always repeated. Among all 48,000 compounds or so, about 1,200 (2.5%) were called active. Not shown: some 2% with an inconclusive outcome.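 Rule for the calls: active = activation of at least 60% and not above a set upper limit (about 1 call in 100 departs from these limits); inconclusive = activation of 40% to 60%, or above that upper limit; inactive = activation under 40%.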 This is one part of the list.
Note: 0% is about no effect.

The compounds below were run against Probable G-protein coupled receptor 32 (Homo sapiens) (UniProt O75388) (assay: qHTS for Agonists of Human Resolvin D1 Receptor DRV1). Conditions: CHO-K1 GPR32 beta-arrestin PathHunter luminescence, 90 min; at 76.9 µM; active compounds read high; zero percent set by DMSO-only wells.
Chain of UniProt O75388 (O75388 whole entry, looked up, the tested form may be a part): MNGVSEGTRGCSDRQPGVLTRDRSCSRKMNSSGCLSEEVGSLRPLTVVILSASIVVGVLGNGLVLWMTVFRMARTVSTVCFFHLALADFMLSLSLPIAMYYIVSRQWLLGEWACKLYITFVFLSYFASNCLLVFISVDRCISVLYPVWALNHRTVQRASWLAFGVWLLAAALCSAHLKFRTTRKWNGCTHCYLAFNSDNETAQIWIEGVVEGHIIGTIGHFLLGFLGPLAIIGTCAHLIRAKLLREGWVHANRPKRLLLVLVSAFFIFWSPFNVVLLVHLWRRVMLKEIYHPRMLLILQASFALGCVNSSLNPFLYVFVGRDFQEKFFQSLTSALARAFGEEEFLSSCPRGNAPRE
How it was run: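 GPR32 activation in stably transfected CHO-K1 cells, detected as beta-arrestin recruitment by enzyme-fragment complementation. Compound exposure: 90 min, 37 °C.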
With `CC(C)NC(C)Cc1ccc(I)cc1` (stereo not drawn) the activation was inactive: -12.9%. In the case of `COc1ccc(-c2nc(CN3C(=O)CN=C(c4ccccc4Cl)c4cc(Cl)ccc43)c(C)o2)cc1OC`, the activation was inactive: -25.3%. In the case of `COC(=O)N1CCN(C(=O)Cc2ccc(Cl)c(Cl)c2)C(CN2CCCC2)C1` (stereo not drawn), the activation was inactive: -11.6%. For `O=C(Cn1cc(C(=O)c2ccccc2)c2ccccc21)Nc1ccc(Br)cc1`, the activation was inactive: -11.2%. With `NCC(O)c1ccc(O)cc1` (stereo not drawn) the activation was inactive: -4.03% and inactive: -9.96%. `N#Cc1nn(-c2c(Cl)cc(C(F)(F)F)cc2Cl)c(N)c1S(=O)C(F)(F)F` (stereo not drawn) was tested, and the activation was inactive: 8.96%. `Nc1ccc(Cl)cc1C(=O)c1ccccc1F` was tested, and the activation was inactive: 46.2%. With `N#Cc1ccccc1NC(=O)c1cccn(Cc2ccccc2)c1=O` the activation was inactive: -1.36%. For `NC(CCCCCP(=O)(O)O)C(=O)O` (stereo not drawn), the activation was inactive: -5.02%. With `ClCc1cccc(Cl)c1` the activation was inactive: 28.6%. With `CCOC(=O)c1ccc(NC(=O)c2cccn(Cc3ccccc3F)c2=O)cc1` the activation was inactive: 33.5%. In the case of `CN1CCc2cccc(Cl)c2CC1`, the activation was inactive: 2.25%. For `COc1c2c(cc3c1OCO3)CCN(C)C2`, the activation was inactive: -6.42%. For `Nc1ccc(Cl)cc1`, the activation was inactive: 20%. `C=CCN1CC[C@]23CCCCC2[C@H]1Cc1ccc(O)cc13` (stereo partly drawn) was tested, and the activation was inactive: -11.3%. `CCC(C(=O)Nc1ccccc1F)N1C(=O)CN=C(c2ccccc2)c2ccccc21` (stereo not drawn) was tested, and the activation was inactive: -105%. For `CN[C@@H](C)[C@H](O)c1ccccc1`, the activation was inactive: 5.92%. For `CCc1ccc(-n2nc(C)c3c2NC(=O)CSC3c2ccc(OC)cc2OC)cc1` (stereo not drawn), the activation was inactive: 1.01%. For `COc1ccc(Cl)cc1NC(=O)c1sc2nc3c(cc2c1N)N1CCC3CC1`, the activation was inactive: 36.2%. For `CC12NC(Cc3ccccc31)c1ccccc12` (stereo not drawn), the activation was inactive: -10.5%. With `COC(=O)[C@@H](N)CCCN/C(N)=N/[N+](=O)[O-]` the activation was inactive: 6.52%. In the case of `COP(=O)(OC)C(O)C(Cl)(Cl)Cl` (stereo not drawn), the activation was inactive: 11.9%. With `CC(CC(C#N)(c1ccccc1)c1ccccc1)N(C)C` (stereo not drawn) the activation was inactive: 12.8%. In the case of `Cc1ccc(-n2c(/C=C/c3ccccc3)nc3ccccc3c2=O)cc1Cl`, the activation was inactive: -14.3%. `C=CCN1CC[C@]23c4c5ccc(O)c4O[C@H]2C(=O)CC[C@@]3(O)[C@H]1C5` was tested, and the activation was inactive: 21%. In the case of `O=C1CC(c2ccccc2Br)c2c(c3ccccc3oc2=O)O1` (stereo not drawn), the activation was inactive: 6.31%. In the case of `OCCOc1ccccc1`, the activation was inactive: 4.84%. In the case of `Cn1cc(C2=C(c3cn(C4CCN(Cc5ccccn5)CC4)c4ccccc34)C(=O)NC2=O)c2ccccc21`, the activation was inactive: -42.8%. In the case of `NC(=O)c1cc(N2CC2)c([N+](=O)[O-])cc1[N+](=O)[O-]`, the activation was inactive: 11.1%. For `Cn1c(=O)n(C)c2cc(CNCCc3ccccc3F)ccc21`, the activation was inactive: -2.65%. For `O=c1n(Cl)c(=O)n(Cl)c(=O)n1Cl`, the activation was inactive: -12.5%. For `C[C@@H]1O[C@H](C[N+](C)(C)C)C[C@H]1O`, the activation was inactive: -9.97%. For `CP(=O)(O)C1=CCNCC1`, the activation was inactive: -1.31%. `NC(=O)CI` was tested, and the activation was inactive: -9.83%. For `CN1CCC(O)(c2ccc(F)cc2)C(C(=O)c2ccc(F)cc2)C1` (stereo not drawn), the activation was inactive: 28.3%. `Oc1ccc2c3c1O[C@H]1[C@@H](O)C=C[C@H]4[C@@H](C2)NCC[C@@]341` was tested, and the activation was inactive: 17.7%. For `CCNc1nc(Cl)nc(NCC)n1`, the activation was inactive: -7.56%. `Cc1cccc(C)c1NC(=O)CN1CCCC1=O` was tested, and the activation was inactive: -1.09% and inactive: 4.98%. `O=C(COc1ccccc1[N+](=O)[O-])N1CCN(CCc2ccncc2)CC1` was tested, and the activation was inactive: 3.68%. For `COc1ccc2[nH]c3c(c2c1)CCNC3`, the activation was inactive: -3.76%. In the case of `C[C@@H]1CC2=CC(=O)CC[C@@H]2[C@H]2CC[C@@]3(C)[C@@H](CC[C@]3(C)O)[C@@H]21`, the activation was inactive: 2.97%. In the case of `Cc1cccc(C)c1OCC(=O)Nc1ccc(Cl)cc1C(=O)c1ccccc1`, the activation was inactive: -31.6%. `N#CC(C#N)=Cc1ccc(O)c(O)c1` was tested, and the activation was inactive: 19.3% and inactive: -26.8%. For `COc1ccc(C)cc1NC(=O)c1cccn(Cc2ccccc2Cl)c1=O`, the activation was inactive: 1.01%. For `Cc1ccc(-n2c(/C=C/c3cc(Br)cs3)nc3ccccc3c2=O)cc1C`, the activation was inactive: -15.9%. `CC(C)C(Br)C(=O)NC(N)=O` (stereo not drawn) was tested, and the activation was inactive: -6.87%. For `COP(=O)(OC)OC=C(Cl)Cl`, the activation was inactive: -3.91%. `CCOc1ccc(-n2c(/C=C/c3ccccc3)nc3ccccc3c2=O)cc1` was tested, and the activation was inactive: -1.6%. For `N#Cc1cc2c(nc1SCC(=O)Nc1cccc(F)c1)C1CCN2CC1`, the activation was active: 67.7%. `ClCCCN1CCN(c2cccc(Cl)c2)CC1` was tested, and the activation was inactive: 10.6%. In the case of `Cc1sc2ccccc2c1CC1=NCCN1`, the activation was inactive: -3.14%. `CSc1ccc(C(c2c(O)c3ccccc3oc2=O)c2c(C)n(C)n(-c3ccccc3)c2=O)cc1` (stereo not drawn) was tested, and the activation was inactive: -2.99%. For `CC(=O)[C@H]1CC[C@H]2[C@@H]3CC[C@H]4C[C@](C)(O)CC[C@]4(C)[C@H]3CC[C@]12C`, the activation was inactive: -2.07% and inactive: -5.02%. With `CN1CCN(c2csc3ccc(F)cc3c2=O)CC1` the activation was inactive: -11.7%. With `CN(C)CCc1ccc(O)cc1` the activation was inactive: 1.8%. In the case of `NC1=NC(=O)C(c2ccccc2)O1` (stereo not drawn), the activation was inactive: 8.71%. For `CCOC(=O)C1(c2ccccc2)CCN(CCC(C#N)(c2ccccc2)c2ccccc2)CC1`, the activation was inactive: -13.2%. `N#Cc1cc([N+](=O)[O-])ccc1NC(=O)c1cccn(Cc2cccc(F)c2)c1=O` was tested, and the activation was inactive: -5.89%. `CCN(CC)C(=O)N[C@@H]1C=C2c3cccc4[nH]cc(c34)C[C@@H]2N(C)C1` was tested, and the activation was active: 63.6%. `COc1cc(CC(C)N)c(OC)cc1I` (stereo not drawn) was tested, and the activation was inactive: 1.87%. `O=C(CCl)c1ccc(Cl)cc1Cl` was tested, and the activation was inactive: -56.2%. `C#C[C@]1(O)CC[C@H]2[C@@H]3CCC4=CC(=O)CCC4=C3C=C[C@@]21CC` was tested, and the activation was inactive: 0.696%. With `O=C(Nc1ccc2c(c1)OCCO2)c1cccn(Cc2cccc([N+](=O)[O-])c2)c1=O` the activation was inactive: -5.07%. For `CCC1(c2ccccc2)C(=O)N(COC)C(=O)N(COC)C1=O`, the activation was inactive: 7.54%. In the case of `N[C@@H]1C[C@H]1c1ccccc1`, the activation was inactive: -17.4%. With `CC(C)NCC(O)c1ccc([N+](=O)[O-])cc1` (stereo not drawn) the activation was inactive: 0.008%. For `Nc1c(C(=O)Nc2ccc(OC(F)(F)F)cc2)sc2nc3c(cc12)N1CCC3CC1`, the activation was inactive: 2.25%. In the case of `COc1cc(/C=C/c2nc3ccccc3c(=O)n2-c2ccc(Br)c(C)c2)ccc1O`, the activation was inactive: -12.7%. For `COc1nn(CSP(=S)(OC)OC)c(=O)s1`, the activation was inactive: -88.5%. `CCCCc1nc2ccccc2c(=O)n1-c1cccc(OC)c1` was tested, and the activation was inactive: -2.71%. With `CC(Cc1ccccc1)NCCn1cnc2c1c(=O)n(C)c(=O)n2C` (stereo not drawn) the activation was inactive: -29.9%. For `C=CC(=O)NCNC(=O)C=C`, the activation was inactive: 20.6%. In the case of `O=C(c1ccc2c(c1)N(Cc1ccc(F)cc1Cl)C(=O)c1ccccc1S2)N1CCC2(CC1)OCCO2`, the activation was inactive: -29.1%. With `Cc1ccc(NC(=O)CN2C(=O)CN=C(c3ccccc3)c3ccccc32)c(C)c1` the activation was inactive: -46.3%. In the case of `CCOP(=S)(OCC)O/N=C(\C#N)c1ccccc1`, the activation was inactive: -68.1%. For `CC(=O)OC1(c2ccccc2)CCN(CCc2ccccc2)CC1`, the activation was active: 85.1%. In the case of `CCN(CC)CCc1c[nH]c2ccccc12`, the activation was inactive: 6.59%. In the case of `COC1CC(=C(c2cccs2)c2cccs2)C[N+](C)(C)C1` (stereo not drawn), the activation was inactive: -10.8%. `Cc1oc(-c2ccc(Cl)cc2)nc1CN1C(=O)CN=C(c2ccccc2)c2cc(Cl)ccc21` was tested, and the activation was inactive: -2.39%. In the case of `CN1CCN(C(=O)O[C@H]2c3nccnc3C(=O)N2c2ccc(Cl)cn2)CC1`, the activation was inactive: 5.7%. `NC(=O)c1cc([N+](=O)[O-])cc([N+](=O)[O-])c1` was tested, and the activation was inactive: 16.1%. In the case of `O=C1CC[C@@]2(O)[C@H]3Cc4ccc(O)c5c4[C@@]2(CCN3CC2CC2)[C@H]1O5`, the activation was inactive: -4.94%. In the case of `COc1ccc(-c2nn3c(=O)cc(CN4CCN(C(=O)COc5ccc(F)cc5)CC4)nc3s2)cc1`, the activation was inactive: -2.47%. For `COc1ccccc1-n1c(/C=C/c2ccccc2)nc2ccccc2c1=O`, the activation was inactive: -11.8%. For `Cn1c(CCCC(=O)O)nc2cc(N(CCCl)CCCl)ccc21`, the activation was inactive: 31.8%. `O=C1CN=C(c2ccccc2)c2cc(Cl)ccc2N1Cc1ccc(Cl)cc1` was tested, and the activation was inactive: -13.4%. `COc1ccc(-c2nc(CN3C(=O)CN=C(c4ccccc4)c4ccccc43)c(C)o2)cc1OC` was tested, and the activation was inactive: -16.3%. `NC(CP(=O)(O)O)C(=O)O` (stereo not drawn) was tested, and the activation was inactive: 6.24%. In the case of `CCc1ccc(OCC(=O)N2CCN(CCc3ccccn3)CC2)cc1`, the activation was inactive: 20.9%. With `CN1CCc2cc(O)cc3c2[C@H]1Cc1ccc(O)c(O)c1-3` the activation was inactive: 17.4%. `CC(NC(C)(C)C)C(=O)c1cccc(Cl)c1` (stereo not drawn) was tested, and the activation was inactive: -37.5% and inactive: -4.38%. For `CCOc1ccc2nc(NC(=O)c3cccn(Cc4ccccc4C)c3=O)sc2c1`, the activation was inactive: 3.77%. With `CCC(=O)N1CC(=O)Nc2ccc(C)cc2C1c1ccc(F)cc1` (stereo not drawn) the activation was inactive: 12.2%. For `Cc1cc(NC(=O)c2cccn(Cc3cccc([N+](=O)[O-])c3)c2=O)no1`, the activation was inactive: -14.5%. `C[C@H](N)Cc1cccc(C(F)(F)F)c1` was tested, and the activation was inactive: 5.21%. In the case of `NCc1cccnc1`, the activation was inactive: 9.91%. `CN(C)[C@@H]1C(=O)C(C(N)=O)=C(O)[C@@]2(O)C(=O)C3=C(O)c4c(O)cccc4[C@@](C)(O)[C@H]3C[C@@H]12` was tested, and the activation was inactive: 5.97%. For `Cc1ccccc1Cn1cccc(C(=O)Nc2cc(Cl)ccc2C#N)c1=O`, the activation was inactive: -1.86%.
